# Assay results: the supplement of paper PMC8728848
# This is one part of the list.
# Columns and labels:
# Assay in all cases: glycan array binding signal (z-score within array); higher = stronger binding
# Settings in all cases: glycan notation: IUPAC condensed, linker removed
# [1] = molecular target: Fuc(a1-2)Gal(b1-4)GlcNAc(b1-3)Gal(b1-4)GlcNAc(b1-3)Gal(b1-4)GlcNAc
# Method in brief: (§1)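 Negative Z-scores can be read as non-binding. The Z-score is calculated within each array and then averaged across arrays of one protein sequence at different concentrations or buffers and across linkers. Arrays, 3228 in all, were curated from the Consortium for Functional Glycomics database and kept only where the protein sequence was available.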
# [2] = molecular target: Fuc(a1-2)Gal(b1-4)GlcNAc(b1-3)GalNAc
# Method in brief: as §1
# [3] = molecular target: Fuc(a1-2)Gal(b1-4)GlcNAc(b1-3)[Fuc(a1-2)Gal(b1-4)GlcNAc(b1-6)]GalNAc
# Method in brief: as §1
# [4] = molecular target: Fuc(a1-2)Gal(b1-4)GlcNAc(b1-6)GalNAc
# Method in brief: as §1
# [5] = molecular target: Fuc(a1-2)Gal(b1-4)GlcNAc6S
# Method in brief: as §1
# [6] = molecular target: Fuc(a1-2)Gal(b1-4)[Fuc(a1-3)]GlcNAc
# Method in brief: as §1
# [7] = molecular target: Fuc(a1-2)Gal(b1-4)[Fuc(a1-3)]GlcNAc(b1-2)Man(a1-3)[Fuc(a1-2)Gal(b1-4)[Fuc(a1-3)]GlcNAc(b1-2)Man(a1-6)]Man(b1-4)GlcNAc(b1-4)GlcNAc
# Method in brief: as §1
# [8] = molecular target: Fuc(a1-2)Gal(b1-4)[Fuc(a1-3)]GlcNAc(b1-2)Man(a1-6)[Fuc(a1-2)Gal(b1-4)[Fuc(a1-3)]GlcNAc(b1-2)Man(a1-3)]Man(b1-4)GlcNAc(b1-4)[Fuc(a1-6)]GlcNAc
# Method in brief: as §1
# [9] = molecular target: Fuc(a1-2)Gal(b1-4)[Fuc(a1-3)]GlcNAc(b1-2)[Fuc(a1-2)Gal(b1-4)[Fuc(a1-3)]GlcNAc(b1-4)]Man(a1-3)[Fuc(a1-2)Gal(b1-4)[Fuc(a1-3)]GlcNAc(b1-2)Man(a1-6)]Man(b1-4)GlcNAc(b1-4)GlcNAc
# Method in brief: as §1
# [10] = molecular target: Fuc(a1-2)Gal(b1-4)[Fuc(a1-3)]GlcNAc(b1-3)Gal(b1-4)[Fuc(a1-3)]GlcNAc
# Method in brief: as §1
# [11] = molecular target: Fuc(a1-2)Gal(b1-4)[Fuc(a1-3)]GlcNAc(b1-3)Gal(b1-4)[Fuc(a1-3)]GlcNAc(b1-3)Gal(b1-4)[Fuc(a1-3)]GlcNAc
# Method in brief: as §1
# [12] = molecular target: Fuc(a1-2)Gal(b1-4)[Fuc(a1-3)]GlcNAc(b1-3)GalNAc
# Method in brief: as §1
# [13] = molecular target: Fuc(a1-2)Gal(b1-4)[Fuc(a1-3)]GlcNAc(b1-3)[Neu5Ac(a2-6)Gal(b1-4)GlcNAc(b1-6)]Gal(b1-4)Glc
# Method in brief: as §1
# [14] = molecular target: Fuc(a1-2)Gal6S(b1-3)GlcNAc
# Method in brief: as §1
# [15] = molecular target: Fuc(a1-2)Gal6S(b1-3)GlcNAc6S
# Method in brief: as §1
# [16] = molecular target: Fuc(a1-2)Gal6S(b1-4)Glc
# Method in brief: as §1
# [17] = molecular target: Fuc(a1-2)Gal6S(b1-4)Glc6S
# Method in brief: as §1
# [18] = molecular target: Fuc(a1-2)Gal6S(b1-4)GlcNAc
# Method in brief: as §1
# [19] = molecular target: Fuc(a1-2)[Gal(a1-3)]Gal
# Method in brief: as §1
# [20] = molecular target: Fuc(a1-2)[Gal(a1-3)]Gal(b1-3)GalNAc
# Method in brief: as §1
# [21] = molecular target: Fuc(a1-2)[Gal(a1-3)]Gal(b1-3)GlcNAc
# Method in brief: as §1
# [22] = molecular target: Fuc(a1-2)[Gal(a1-3)]Gal(b1-3)GlcNAc(b1-2)Man(a1-3)[Fuc(a1-2)[Gal(a1-3)]Gal(b1-3)GlcNAc(b1-2)Man(a1-6)]Man(b1-4)GlcNAc(b1-4)GlcNAc
# Method in brief: as §1
# [23] = molecular target: Fuc(a1-2)[Gal(a1-3)]Gal(b1-3)GlcNAc(b1-2)Man(a1-3)[Fuc(a1-2)[Gal(a1-3)]Gal(b1-3)GlcNAc(b1-2)Man(a1-6)]Man(b1-4)GlcNAc(b1-4)[Fuc(a1-6)]GlcNAc
# Method in brief: as §1
# [24] = molecular target: Fuc(a1-2)[Gal(a1-3)]Gal(b1-3)GlcNAc(b1-3)GalNAc
# Method in brief: as §1
# [25] = molecular target: Fuc(a1-2)[Gal(a1-3)]Gal(b1-4)Glc
# Method in brief: as §1
# [26] = molecular target: Fuc(a1-2)[Gal(a1-3)]Gal(b1-4)GlcNAc
# Method in brief: as §1
# [27] = molecular target: Fuc(a1-2)[Gal(a1-3)]Gal(b1-4)GlcNAc(b1-2)Man(a1-3)[Fuc(a1-2)[Gal(a1-3)]Gal(b1-4)GlcNAc(b1-2)Man(a1-6)]Man(b1-4)GlcNAc(b1-4)GlcNAc
# Method in brief: as §1
# [28] = molecular target: Fuc(a1-2)[Gal(a1-3)]Gal(b1-4)GlcNAc(b1-2)Man(a1-3)[Fuc(a1-2)[Gal(a1-3)]Gal(b1-4)GlcNAc(b1-2)Man(a1-6)]Man(b1-4)GlcNAc(b1-4)[Fuc(a1-6)]GlcNAc
# Method in brief: as §1
# [29] = molecular target: Fuc(a1-2)[Gal(a1-3)]Gal(b1-4)GlcNAc(b1-3)GalNAc
# Method in brief: as §1
# [30] = molecular target: Fuc(a1-2)[Gal(a1-3)]Gal(b1-4)GlcNAc(b1-6)GalNAc
# Method in brief: as §1
# [31] = molecular target: Fuc(a1-2)[Gal(a1-3)]Gal(b1-4)[Fuc(a1-3)]Glc
# Method in brief: as §1
# [32] = molecular target: Fuc(a1-2)[Gal(a1-3)]Gal(b1-4)[Fuc(a1-3)]GlcNAc
# Method in brief: as §1
# [33] = molecular target: Fuc(a1-2)[Gal(a1-3)]Gal(b1-4)[Fuc(a1-3)]GlcNAc(b1-3)GalNAc
# Method in brief: as §1
# [34] = molecular target: Fuc(a1-2)[Gal(a1-4)]Gal(b1-4)GlcNAc
# Method in brief: as §1
# [35] = molecular target: Fuc(a1-2)[GalNAc(a1-3)]Gal
# Method in brief: as §1
# [36] = molecular target: Fuc(a1-2)[GalNAc(a1-3)]Gal(b1-3)GalNAc(a1-3)[Fuc(a1-2)]Gal(b1-4)GlcNAc
# Method in brief: as §1
# [37] = molecular target: Fuc(a1-2)[GalNAc(a1-3)]Gal(b1-3)GlcNAc
# Method in brief: as §1
# [38] = molecular target: Fuc(a1-2)[GalNAc(a1-3)]Gal(b1-3)GlcNAc(b1-2)Man(a1-3)[Fuc(a1-2)[GalNAc(a1-3)]Gal(b1-3)GlcNAc(b1-2)Man(a1-6)]Man(b1-4)GlcNAc(b1-4)GlcNAc
# Method in brief: as §1
# [39] = molecular target: Fuc(a1-2)[GalNAc(a1-3)]Gal(b1-3)GlcNAc(b1-2)Man(a1-3)[Fuc(a1-2)[GalNAc(a1-3)]Gal(b1-3)GlcNAc(b1-2)Man(a1-6)]Man(b1-4)GlcNAc(b1-4)[Fuc(a1-6)]GlcNAc
# Method in brief: as §1
# [40] = molecular target: Fuc(a1-2)[GalNAc(a1-3)]Gal(b1-3)GlcNAc(b1-3)GalNAc
# Method in brief: as §1
# [41] = molecular target: Fuc(a1-2)[GalNAc(a1-3)]Gal(b1-3)GlcNAc(b1-6)GalNAc
# Method in brief: as §1
# [42] = molecular target: Fuc(a1-2)[GalNAc(a1-3)]Gal(b1-4)Glc
# Method in brief: as §1
# [43] = molecular target: Fuc(a1-2)[GalNAc(a1-3)]Gal(b1-4)GlcNAc
# Method in brief: as §1
# [44] = molecular target: Fuc(a1-2)[GalNAc(a1-3)]Gal(b1-4)GlcNAc(b1-2)Man(a1-3)[Fuc(a1-2)[GalNAc(a1-3)]Gal(b1-4)GlcNAc(b1-2)Man(a1-6)]Man(b1-4)GlcNAc(b1-4)GlcNAc
# Method in brief: as §1
# [45] = molecular target: Fuc(a1-2)[GalNAc(a1-3)]Gal(b1-4)GlcNAc(b1-2)Man(a1-3)[Fuc(a1-2)[GalNAc(a1-3)]Gal(b1-4)GlcNAc(b1-2)Man(a1-6)]Man(b1-4)GlcNAc(b1-4)[Fuc(a1-6)]GlcNAc
# Method in brief: as §1
binder,measurement,setting,value
CCL1 (Coprinopsis cinerea) (protein) MDTQAKPPAGRYVIYNRVLSPNGEKLALTYPGYQREALTLTPLHHSANQIWILNNWDATTSSLTPETARNTQVGWGSGNVPIVLPPGNYVWTLASSAGGYIIQDGGKTVYWNAGEAVANTKVSIGGDNGLQARWIFERV,glycan array binding signal (z-score),[1],-0.153
same,glycan array binding signal (z-score),[2],-0.052
same,glycan array binding signal (z-score),[3],-0.025
same,glycan array binding signal (z-score),[4],0.468
same,glycan array binding signal (z-score),[5],-0.142
same,glycan array binding signal (z-score),[6],-0.139
same,glycan array binding signal (z-score),[7],-0.076
same,glycan array binding signal (z-score),[8],-0.119
same,glycan array binding signal (z-score),[9],-0.108
same,glycan array binding signal (z-score),[10],-0.136
same,glycan array binding signal (z-score),[11],0.235
same,glycan array binding signal (z-score),[12],0.375
same,glycan array binding signal (z-score),[13],-0.142
same,glycan array binding signal (z-score),[14],-0.139
same,glycan array binding signal (z-score),[15],-0.041
same,glycan array binding signal (z-score),[16],-0.112
same,glycan array binding signal (z-score),[17],-0.033
same,glycan array binding signal (z-score),[18],-0.122
same,glycan array binding signal (z-score),[19],-0.136
same,glycan array binding signal (z-score),[20],-0.147
same,glycan array binding signal (z-score),[21],-0.132
same,glycan array binding signal (z-score),[22],-0.131
same,glycan array binding signal (z-score),[23],-0.129
same,glycan array binding signal (z-score),[24],-0.116
same,glycan array binding signal (z-score),[25],-0.113
same,glycan array binding signal (z-score),[26],-0.169
same,glycan array binding signal (z-score),[27],-0.115
same,glycan array binding signal (z-score),[28],-0.155
same,glycan array binding signal (z-score),[29],-0.154
same,glycan array binding signal (z-score),[30],-0.064
same,glycan array binding signal (z-score),[31],-0.168
same,glycan array binding signal (z-score),[32],-0.138
same,glycan array binding signal (z-score),[33],-0.124
same,glycan array binding signal (z-score),[34],-0.174
same,glycan array binding signal (z-score),[35],-0.152
same,glycan array binding signal (z-score),[36],-0.131
same,glycan array binding signal (z-score),[37],-0.127
same,glycan array binding signal (z-score),[38],-0.11
same,glycan array binding signal (z-score),[39],-0.122
same,glycan array binding signal (z-score),[40],-0.138
same,glycan array binding signal (z-score),[41],-0.118
same,glycan array binding signal (z-score),[42],-0.18
same,glycan array binding signal (z-score),[43],-0.146
same,glycan array binding signal (z-score),[44],-0.078
same,glycan array binding signal (z-score),[45],-0.136
